{
  "source": "PubChem BioAssay AID588342",
  "about": "(National Center for Advancing Translational Sciences (NCATS), 2011)",
  "note": "In all, about 360,000 compounds went through this assay and about 25,000 (6.9%) were called active. This list was built around the results that the source calls inconclusive (neither active nor inactive); the mix of calls is not that of the screen. Calls follow the shape of the dose curve; as a rule, active = well fitted inhibition curve with a large enough effect; inconclusive = small, poorly fitted or top-dose-only effect; inactive = flat fitted curve, though single readings scatter. Potencies of inconclusive entries are doubtful fits and often do not repeat. Potency is read from the fitted curve at half-maximal effect; tags tell the direction and shape of the fitted curve.",
  "data": [
    {"target": "Luciferin 4-monooxygenase (Photinus pyralis) (UniProt P08659)", "sequence (P08659 whole entry, looked up)": "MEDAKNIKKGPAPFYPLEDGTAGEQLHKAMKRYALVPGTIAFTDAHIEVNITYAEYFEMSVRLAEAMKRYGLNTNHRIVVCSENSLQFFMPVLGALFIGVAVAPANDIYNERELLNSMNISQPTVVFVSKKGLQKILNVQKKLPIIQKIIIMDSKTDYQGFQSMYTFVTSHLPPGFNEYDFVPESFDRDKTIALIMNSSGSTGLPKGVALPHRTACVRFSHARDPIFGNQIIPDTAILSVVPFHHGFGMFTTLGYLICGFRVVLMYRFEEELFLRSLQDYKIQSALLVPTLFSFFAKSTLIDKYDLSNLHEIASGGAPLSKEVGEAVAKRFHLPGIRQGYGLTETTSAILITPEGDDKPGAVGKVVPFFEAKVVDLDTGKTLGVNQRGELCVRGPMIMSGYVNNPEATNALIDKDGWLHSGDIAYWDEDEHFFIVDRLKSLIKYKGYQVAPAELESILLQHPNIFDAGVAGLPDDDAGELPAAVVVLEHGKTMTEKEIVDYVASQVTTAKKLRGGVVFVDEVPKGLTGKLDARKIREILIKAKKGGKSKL", "experiment": "qHTS profiling assay for firefly luciferase inhibitor/activator using purifed enzyme and Km concentrations of substrates (counterscreen for miR-21 project); also: nearly all actives have a fitted effect of over 55% in size", "conditions": "purified FLuc, luminescence inhibition; series mostly up to 57.5 µM", "outline": "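Biochemical qHTS of compounds, final roughly 60 µM downward over six points, against 10 nM purified firefly luciferase using Km concentrations of substrates (10 uM D-luciferin, 10 uM ATP) in Tris acetate pH 7.5 buffer; luminescence output.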", "values": [
      {"compound": "Oc1c(Br)cc(Br)cc1CNc1ccc(F)cc1", "Potency": "inconclusive: 37.9 µM [inhibitor, partial curve, poor fit]"},
      {"compound": "COc1ccc(C2=NN(C(C)=O)C(c3ccccc3)C2)cc1", "note": "(configuration not stated)", "Potency": "inconclusive: 23.9 µM [inhibitor, single point]"},
      {"compound": "CCN(C(=O)COC(=O)c1oc2ccccc2c1C)c1c(N)n(Cc2ccccc2)c(=O)[nH]c1=O", "Potency": "inactive"},
      {"compound": "N=c1nc(N)nc2n1NC(c1ccc(F)cc1)=CS2", "Potency": "active: 15.1 µM"},
      {"compound": "COc1cc(/C=C(/C#N)C(=O)Nc2ccccc2)c(Br)cc1OCc1ccc(C(=O)O)cc1", "Potency": "inconclusive: 26.9 µM [inhibitor, partial curve, poor fit]"},
      {"compound": "O=C(CN1C(=O)C(c2ccc(F)cc2)=NC12CCCCCC2)Nc1ccc(F)c(Cl)c1", "Potency": "inactive"},
      {"compound": "Cn1ncc([N+](=O)[O-])c1C(=O)Nc1ccc2c(c1)OCCO2", "Potency": "inconclusive: 26.9 µM [inhibitor, partial curve, poor fit]"},
      {"compound": "COc1ccc(NC(=O)c2sccc2-n2cccc2)cc1", "Potency": "inconclusive: 30.1 µM [inhibitor, partial curve, poor fit]"},
      {"compound": "O=C(CCCn1c(=O)[nH]c2ccccc2c1=O)NCc1ccccc1Cl", "Potency": "inconclusive: 26.9 µM [inhibitor, partial curve, poor fit]"},
      {"compound": "CCc1nn(CC(=O)NCCCOC)c(=O)c2cc3occc3n12", "Potency": "inactive"},
      {"compound": "COc1cc(/C=N/NC(=O)c2cncc(Br)c2)ccc1OC(=O)c1ccc2c(c1)OCO2", "Potency": "inactive"},
      {"compound": "COc1cccc(NC(=O)CSc2nc3ccc(NC(=O)c4ccco4)cc3s2)c1", "Potency": "inconclusive: 9.53 µM [inhibitor, partial curve]"},
      {"compound": "CCCN(CCC)CCCNC(=O)Cn1cnc2onc(-c3ccc(F)cc3)c2c1=O", "Potency": "inactive"},
      {"compound": "CC(=O)OC(C)[C@H]1CC[C@H]2[C@@H]3CC[C@H]4C[C@@H](OC(C)=O)CC[C@]4(C)C3=CC[C@]12C", "note": "(some centres not stated)", "Potency": "inactive"},
      {"compound": "Cc1ccc(-c2nnc(Nc3ccc(Br)cc3)c3ccccc23)cc1S(=O)(=O)N1CCCCC1", "Potency": "inactive"},
      {"compound": "O=C(OCc1ccc(Cl)cc1)c1cccnc1Cl", "Potency": "inconclusive: 19 µM [inhibitor, single point]"},
      {"compound": "CC(=O)Nc1ccc(OCC(O)Cn2c3ccccc3c3ccccc32)cc1", "note": "(configuration not stated)", "Potency": "inconclusive: 21.3 µM [inhibitor, partial curve, poor fit]"},
      {"compound": "CC(=O)C1=C(O)C(=O)N(Cc2ccco2)C1c1cccc(F)c1", "note": "(configuration not stated)", "Potency": "inconclusive: 12 µM [inhibitor, partial curve]"},
      {"compound": "Cc1ccc(SC(=O)COc2ccc(C)c(C)c2)cc1", "Potency": "inconclusive: 37.9 µM [inhibitor, single point]"},
      {"compound": "O=C(CCC(=O)OCc1ccc(C(=O)Oc2ccc(Cl)cc2)cc1)Nc1ccccc1", "Potency": "inconclusive: 16.9 µM [inhibitor, partial curve, poor fit]"},
      {"compound": "COc1ccc2cc(C(=O)N/N=C/c3cc(OC)c(OC)c(OC)c3)[nH]c2c1", "Potency": "active: 6.75 µM"},
      {"compound": "O=C(Nc1cccc2cccnc12)c1ccc(F)cc1", "Potency": "active: 15.1 µM"},
      {"compound": "CCOc1ccc2c(c1)c1nnc(SCC(=O)N3CCCCC3C)nc1n2C", "note": "(configuration not stated)", "Potency": "inconclusive: 16.9 µM [inhibitor, partial curve]"},
      {"compound": "COCCNC(=O)c1nn(-c2ccc(Cl)cc2)nc1CO", "Potency": "inconclusive: 42.6 µM [inhibitor, partial curve, poor fit]"},
      {"compound": "CCCc1cc2c(=O)c(-c3ccc4c(c3)OCCO4)coc2cc1OC(=O)c1ccco1", "Potency": "active: 5.36 µM"},
      {"compound": "CC(C)Sc1nc(SCC(=O)O)c2c3c(sc2n1)COC(C)(C)C3", "Potency": "active: 13.5 µM"},
      {"compound": "O=C(CSc1ccccc1)NCc1ccc2c(c1)CCN2C(=O)c1ccc(F)cc1", "Potency": "inconclusive: 26.9 µM [inhibitor, partial curve, poor fit]"},
      {"compound": "Cc1ccc(OCC(=O)NS(=O)(=O)c2ccc(Cl)cc2)cc1", "Potency": "inactive"},
      {"compound": "CC(C)NS(=O)(=O)c1ccc(CCC(=O)N2CCCCC2)cc1", "Potency": "inconclusive: 0.0095 µM [inhibitor, partial curve, poor fit]"},
      {"compound": "Cc1cccc(Sc2nc(-c3ccccc3)ncc2C(=O)O)c1", "Potency": "inconclusive: 16.9 µM [inhibitor, partial curve]"},
      {"compound": "O=C1c2cccc3c(N4CCCCC4)ccc(c23)C(=O)N1c1ccccc1O", "Potency": "inconclusive: 23.9 µM [inhibitor, partial curve, poor fit]"},
      {"compound": "CCOc1ccc(Nc2ccc(C(=O)O)cc2[N+](=O)[O-])cc1", "Potency": "inconclusive: 37.9 µM [inhibitor, single point]"},
      {"compound": "O=S(=O)(Nc1nc2ccccc2nc1NCc1ccco1)c1ccc(Cl)cc1", "Potency": "inactive"},
      {"compound": "O=C(O)C1CCCCC1C(=O)N1CC=C(c2ccccc2)CC1", "note": "(configuration not stated)", "Potency": "inconclusive: 8.49 µM [inhibitor, partial curve, poor fit]"},
      {"compound": "O=C1CCN(CCc2ccccc2)CCN1[C@H](CSc1ccc(Br)cc1)c1ccccc1", "Potency": "inconclusive: 13.5 µM [inhibitor, partial curve]"},
      {"compound": "CN(CC(=O)Nc1ccccc1Cl)S(=O)(=O)c1ccc(C(=O)N2CCOCC2)s1", "Potency": "inactive"},
      {"compound": "CCCc1cc(C(=O)NC2CCCC2)no1", "Potency": "inconclusive: 19 µM [inhibitor, partial curve]"},
      {"compound": "CCOC(=O)c1c(C)oc2c1c1c(c3ccccc32)OCN(CCCC(=O)O)C1", "Potency": "active: 19 µM"},
      {"compound": "N#Cc1ccccc1OCC(=O)NC(=O)NCc1ccccc1", "Potency": "inconclusive: 37.9 µM [inhibitor, single point]"},
      {"compound": "CCC(=O)Nc1ccc2nc(SCc3ccc(C)cc3)sc2c1", "Potency": "inconclusive: 7.57 µM [inhibitor, partial curve, poor fit]"},
      {"compound": "O=C(Nc1nnc(SCc2c(Cl)cccc2Cl)s1)C1CCCO1", "note": "(configuration not stated)", "Potency": "inconclusive: 16.9 µM [inhibitor, partial curve, poor fit]"},
      {"compound": "COc1ccc(OCCCC(=O)Nc2cccc(C(C)=O)c2)cc1", "Potency": "inactive"},
      {"compound": "CC12CCC(C(=O)N(CSC(=S)N/N=C\\c3ccccc3O)C1=O)C2(C)C", "note": "(configuration not stated)", "Potency": "inconclusive: 37.9 µM [inhibitor, partial curve, poor fit]"},
      {"compound": "O=C(Nc1ccc(N2CCCCC2)c(Cl)c1)c1ncn[nH]1", "Potency": "active: 6.01 µM"},
      {"compound": "COc1ccccc1N1CCN(/N=C/c2cccc(OC)c2OC)CC1", "Potency": "inconclusive: 16.9 µM [inhibitor, partial curve]"},
      {"compound": "COc1ccc2oc(=O)c(C(=O)N3CCN(c4ccccc4C)CC3)cc2c1", "Potency": "active: 13.5 µM"},
      {"compound": "O=C(Nc1nc2ccccc2s1)NC1CCCCC1", "Potency": "active: 1.9 µM"},
      {"compound": "CC1CCC(NC(=O)c2ccc(NC(=O)CC3SC(N4CCCC4)=NC3=O)cc2)CC1", "note": "(configuration not stated)", "Potency": "inconclusive: 15.1 µM [inhibitor, partial curve]"},
      {"compound": "COc1ccccc1C(=O)N1CCN(c2nc3cc(C)c(C)cc3cc2C#N)CC1", "Potency": "inactive"},
      {"compound": "COc1cccc(/C=N/N2CCN(C)CC2)c1", "Potency": "inconclusive: 37.9 µM [inhibitor, single point]"},
      {"compound": "CCOc1ccc(OCCC(=O)Nc2cccc(S(=O)(=O)N3CCCC3)c2)cc1", "Potency": "inconclusive: 30.1 µM [inhibitor, partial curve, poor fit]"},
      {"compound": "O=C(c1ccc(Cl)c(Cl)c1)N1CCCC1", "Potency": "inactive"},
      {"compound": "Cc1ccc(Nc2nnc(-c3ccc4c(c3)OCO4)o2)c(C)c1", "Potency": "active: 8.49 µM"},
      {"compound": "CC1CCCN(c2ccc(C(=O)NCC3CCCO3)cn2)C1", "note": "(configuration not stated)", "Potency": "inconclusive: 21.3 µM [inhibitor, partial curve, poor fit]"},
      {"compound": "COc1cccc(C(=O)OCCN2C(=O)c3ccccc3C2=O)c1OC", "Potency": "inconclusive: 23.9 µM [inhibitor, partial curve, poor fit]"},
      {"compound": "CCc1ccc2oc(C(=O)NC3CCS(=O)(=O)C3)cc(=O)c2c1", "note": "(configuration not stated)", "Potency": "inactive"},
      {"compound": "Cc1ccc(Cc2nc3ccccc3nc2SCC(=O)Nc2cccc(C(F)(F)F)c2)cc1", "Potency": "inactive"},
      {"compound": "Fc1ccccc1CSc1nc2ncc(Br)cc2[nH]1", "Potency": "inconclusive: 19 µM [inhibitor, single point]"},
      {"compound": "COc1ccc(/C(C)=N/Nc2nncc3ccccc23)cc1", "Potency": "active: 1.35 µM"},
      {"compound": "CCNC(=O)NC(=O)COc1ccccc1C#N", "Potency": "inconclusive: 26.9 µM [inhibitor, single point]"},
      {"compound": "O=[N+]([O-])c1cc(Cl)ccc1NCCc1ccccn1", "Potency": "inconclusive: 23.9 µM [inhibitor, single point]"},
      {"compound": "O=C(COC(=O)C1C2CC3OC(=O)C1C3C2)Nc1cccc(Cl)c1", "note": "(configuration not stated)", "Potency": "inconclusive: 30.1 µM [inhibitor, partial curve, poor fit]"},
      {"compound": "Cc1cc(OCCN2CCOCC2)ccc1C(C)C", "Potency": "inconclusive: 33.8 µM [inhibitor, partial curve, poor fit]"},
      {"compound": "O=C1COc2cc(S(=O)(=O)CCC(=O)N3CCN(c4cccc(Cl)c4)CC3)c(Cl)cc2N1", "Potency": "inactive"},
      {"compound": "O=C(c1ccc2nc(Cc3cccc(Cl)c3)oc2c1)N1CCOCC1", "Potency": "active: 16.9 µM"},
      {"compound": "COCCn1c(SCC(=O)Nc2ccc(NC(=O)c3ccco3)c(OC)c2)nc2ccccc2c1=O", "Potency": "inactive"},
      {"compound": "Cc1nn(CC(=O)NCCc2ccccc2Cl)c(=O)c2nn(-c3ccccc3)c(C)c12", "Potency": "inactive"},
      {"compound": "COc1ccc(S(=O)(=O)n2ccc(-c3ccc(OCCN(C)c4ccccn4)cc3)n2)cc1", "Potency": "inactive"},
      {"compound": "O=[N+]([O-])c1ccccc1/C=N/n1c(C(F)(F)F)n[nH]c1=S", "Potency": "inconclusive: 15.1 µM [inhibitor, partial curve]"},
      {"compound": "COc1cccc2c1OCC/C2=N\\NC(=O)COc1ccccc1C", "Potency": "active: 6.75 µM"},
      {"compound": "CCc1nc(Nc2ccc(F)cc2)c2oc3ccccc3c2n1", "Potency": "inconclusive: 23.9 µM [inhibitor, single point]"},
      {"compound": "O=C(OCc1cn(-c2ccc(Cl)cc2)nn1)c1ccccc1", "Potency": "inconclusive: 37.9 µM [inhibitor, single point]"}
    ]}
  ]
}
